Test results taken from the supplement of paper PMC12217912.
This is one part of the list. The full chains were built here from the parent and the listed change. Inactive controls read about 0.05.

B1: TEV protease; numbered along this chain (parent)
chain: MGESLFKGPRDYNPISSSICHLTNESDGHTTSLYGIGFGPFIITNKHLFRRNNGTLVVQSLHGVFKVKDTTTLQQHLVDGRDMIIIRMPKDFPPFPQKLKFREPQREERICLVTTNFQTKSMSSMVSDTSCTFPSGDGIFWKHWIQTKDGQCGSPLVSTRDGFIVGIHSASNFTNTNNYFTSVPKNFMELLTNQEAQQWVSGWRLNADSVLWGGHKVFMVKPEEPFQPVKEATQL

Variants of: B1
Test: raw area under fraction-flipped curve 0-4 h after induction (AUC4h, not background-subtracted), DNA-recorder readout of cleavage of the substrate (dimensionless); higher = more cleavage of the substrate by the protease variant
Details: temperature: 34 °C; time window: 0-4 h after rhamnose induction
Protocol: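 In vivo DNA recorder in E. coli TOP10(DE3) ΔrhaA at 34 °C. Each TEVp single-site mutant (parent TEVp 0) is paired with a single-site variant of the 7-mer TEVs (canonical ENLYFQ|S). The substrate sits between flexible linkers in a Bxb1-sfGFP-TEVs-SsrA fusion, so cleavage stabilises Bxb1 and speeds flipping of a recombination array, read by NGS. The value is the raw area under the fraction-flipped curve over 0-4 h after rhamnose induction (AUC4h), with ≥20 reads per time point. It is not background-subtracted; inactive controls average about 0.047.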
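Also: Bxb1 expression induced with 0.2% (w/v) L-rhamnose at OD600 near 0.5, cultures sampled hourly, flipped fraction per protease–substrate barcode pair counted by paired-end Illumina sequencing.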

Variant | area with substrate ENLYFAS | area with substrate ENLYFCS | area with substrate ENLYFDS | area with substrate ENLYFES | area with substrate ENLYFFS | area with substrate ENLYFIS | area with substrate ENLYFKS | area with substrate ENLYFLS | area with substrate ENLYFMS | area with substrate ENLYFPS | area with substrate ENLYFSS | area with substrate ENLYFTS | area with substrate ENLYFVS | area with substrate ENLYFWS | area with substrate ENLYFGS | area with substrate ENLYFNS | area with substrate ENLYFYS | area with substrate ENLYFHS | area with substrate ENLYFRS
G150S | 0.056 | 0.0479 | 0.0466 | 0.0578 | 0.0722 | 0.0557 | 0.0603 | 0.0699 | 0.0745 | 0.0604 | 0.0672 | 0.0576 | 0.0601 | 0.0507 | – | – | – | – | –
D82C | 0.0472 | 0.0166 | – | – | 0.0821 | 0.0576 | – | – | 0.0613 | 0.0581 | – | 0.0665 | – | 0.0554 | 0.0608 | 0.054 | 0.0524 | – | –
K46G | 0.0536 | 0.0444 | 0.0707 | 0.0428 | 0.0736 | 0.0607 | 0.0606 | 0.055 | 0.0564 | 0.0553 | 0.0448 | 0.0554 | 0.0631 | 0.0975 | 0.0557 | 0.0552 | 0.0571 | 0.0666 | –
H62G | 0.0494 | 0.0531 | – | 0.0652 | 0.0621 | 0.0637 | 0.0497 | 0.0896 | 0.0636 | 0.0511 | – | 0.0628 | – | 0.0519 | – | 0.0645 | 0.0442 | – | –
R10A | 0.0631 | 0.0609 | 0.0507 | 0.0567 | 0.0683 | 0.0461 | 0.0624 | – | 0.0666 | 0.0558 | – | 0.0565 | – | 0.0449 | – | 0.0582 | 0.0643 | – | 0.0429
S209Q | 0.0746 | – | – | – | 0.0663 | 0.0535 | – | 0.0589 | 0.0751 | 0.0568 | 0.0685 | 0.0611 | 0.0629 | 0.0526 | 0.0575 | 0.0581 | – | – | 0.0751
K216E | 0.064 | 0.0652 | – | 0.0705 | – | 0.0511 | – | 0.076 | – | – | – | – | – | 0.0369 | – | 0.0819 | 0.0368 | – | –
G136I | 0.0514 | – | – | 0.0585 | – | 0.0629 | – | 0.0567 | 0.0554 | 0.0707 | – | 0.0379 | – | 0.0421 | 0.0497 | 0.0632 | – | – | 0.0436
V126K | 0.0599 | – | 0.076 | 0.0708 | 0.0669 | 0.0598 | 0.0679 | 0.0806 | 0.0563 | 0.06 | 0.0406 | – | – | 0.0673 | – | 0.0592 | – | 0.0622 | –
E223P | 0.0576 | 0.062 | 0.0623 | 0.0536 | – | – | 0.0587 | 0.0541 | 0.0649 | 0.0577 | 0.04 | 0.0627 | – | 0.0503 | – | 0.061 | – | – | 0.0663
K68S | 0.0556 | 0.0568 | 0.057 | 0.0743 | – | 0.0598 | – | – | 0.0661 | 0.0543 | 0.0501 | 0.0654 | 0.0452 | – | – | 0.0427 | – | – | –
V157H | 0.0524 | 0.0499 | 0.0469 | 0.0622 | 0.0588 | 0.0414 | 0.0531 | – | 0.0565 | 0.0565 | 0.0574 | 0.0503 | 0.0491 | 0.0507 | 0.0431 | 0.0531 | 0.0539 | – | 0.0617
D27H | 0.0433 | 0.0504 | – | 0.0558 | 0.0446 | 0.0565 | – | – | 0.0704 | 0.0645 | 0.0574 | – | 0.0781 | 0.0565 | – | 0.0621 | – | 0.0594 | 0.0562
H143S | 0.0604 | 0.0615 | 0.0513 | 0.0625 | 0.0618 | 0.0494 | – | 0.046 | 0.021 | 0.0776 | – | – | 0.0537 | 0.0464 | – | 0.071 | 0.0644 | – | 0.0969
E108R | 0.06 | 0.049 | – | 0.0403 | 0.0613 | 0.0483 | 0.0566 | – | 0.0434 | 0.0513 | – | 0.0484 | 0.0582 | 0.0452 | – | 0.0594 | – | 0.021 | 0.0563
I85Q | 0.048 | – | 0.0466 | 0.0608 | 0.0651 | 0.0484 | 0.054 | – | 0.0652 | 0.0547 | 0.0505 | – | – | 0.0299 | 0.055 | – | 0.051 | 0.0519 | 0.0569
K185R | 0.074 | 0.0594 | – | 0.0819 | – | 0.0558 | 0.0485 | – | 0.0603 | – | 0.0606 | – | – | – | – | – | – | – | 0.0503
V57H | 0.0632 | 0.0627 | – | 0.0704 | 0.0534 | 0.0461 | 0.0657 | – | 0.071 | 0.0633 | 0.0833 | – | – | – | – | – | – | – | –
K100P | 0.0527 | 0.0645 | 0.0599 | 0.0714 | 0.0673 | 0.06 | 0.0784 | 0.053 | 0.0746 | 0.0566 | – | 0.0535 | 0.0579 | 0.0636 | – | – | – | 0.0573 | 0.0731
S127N | 0.0548 | 0.0648 | 0.0525 | 0.0615 | 0.0732 | 0.0477 | 0.0527 | – | 0.0619 | 0.0576 | 0.0647 | 0.0577 | – | – | 0.059 | 0.0607 | 0.0639 | – | 0.0571
G213I | 0.0452 | 0.0549 | – | 0.0588 | 0.0664 | 0.0494 | 0.0601 | – | 0.0554 | 0.0619 | – | – | 0.0555 | – | – | – | – | – | 0.0539
V220F | 0.0625 | 0.0398 | 0.0641 | 0.0593 | 0.0602 | 0.057 | – | – | 0.067 | 0.0606 | – | 0.06 | 0.0565 | – | – | 0.0575 | 0.0566 | 0.0587 | 0.0682
R109S | 0.063 | 0.061 | 0.0674 | 0.0736 | – | 0.0656 | 0.06 | 0.0519 | 0.0652 | 0.0732 | 0.0818 | – | 0.0598 | 0.053 | 0.0679 | 0.0629 | 0.0734 | 0.0629 | 0.0622
R81Q | 0.056 | – | – | 0.056 | – | – | – | – | – | 0.0623 | – | 0.051 | – | – | – | 0.0494 | – | – | 0.0544
P96D | 0.0583 | – | – | 0.0619 | – | 0.048 | 0.0751 | 0.0568 | 0.0562 | 0.0515 | – | 0.0549 | 0.0525 | – | – | – | 0.0575 | – | 0.053
T55P | 0.0739 | 0.0554 | – | 0.0624 | 0.065 | 0.0644 | 0.0573 | 0.0634 | 0.0735 | 0.0672 | 0.057 | 0.0768 | – | – | 0.0631 | – | 0.0552 | 0.0543 | –
D149W | 0.0621 | 0.0657 | – | 0.0346 | – | 0.0613 | 0.0585 | – | 0.0532 | 0.0492 | 0.0786 | 0.0417 | – | 0.0644 | – | 0.0507 | – | 0.0804 | 0.0522
